# Measurements from PubChem BioAssay AID2101 (National Center for Advancing Translational Sciences (NCATS), 2009).
# Hit rate of the full screen: of about 330,000 compounds, about 300 (0.091%) were called active. The inconclusive results got no clear call from the source; some entries with a clear call stand among them for comparison. Calls follow the shape of the dose curve; as a rule, active = well fitted inhibition curve with a large enough effect; inconclusive = small, poorly fitted or top-dose-only effect, or effect the other way, or another doubt; inactive = no such curve, though single readings can be large or run the other way. No potency is given beside an inconclusive call; the fits are too rough.
# Target: Lysosomal acid glucosylceramidase (Homo sapiens) (UniProt P04062)
# Assay: qHTS Assay for Inhibitors and Activators of N370S glucocerebrosidase as a Potential Chaperone Treatment of Gaucher Disease;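 as to activity change, negative = inhibition: 0% = full enzyme activity and -100% = no enzyme basal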
# Details: N370S GC spleen homogenate, 4MU-glucoside fluorescence; activity change, negative = inhibition: at 59.4 µM (top of the series) unless noted
# Potency is read from the fitted curve at half-maximal effect.
Structure (SMILES),"activity change, negative = inhibition",Potency
Cc1ccccc1-c1nnn(CC(=O)NCc2ccc3c(c2)OCO3)n1,inconclusive: 31.1% [activator],–
O=C(CSc1ncnc2ccccc12)NCCCO,inactive: 1.63%,–
CC1(C(=O)O)CCC(C(=O)Nc2ccc(F)cc2)C1(C)C (stereo not drawn),–,"inconclusive [inhibitor, single point]"
Cc1ccc(CC(=O)Nc2nc3ccccc3[nH]2)cc1C,–,"inconclusive [inhibitor, partial curve]"
COC(=O)C1=C[C@@H](C(=O)OC)[C@@H]2C3=C(C(=O)[C@@]2(C)NC(=O)c2ccccc2)[C@H](C)[C@@H]2C(=O)N(Cc4ccccc4)C(=O)[C@@H]2[C@@H]3C1,inactive: -1.53%,–
Cc1cccc(-c2nc(C#N)c(N3CCCCCC3)o2)c1,–,"inconclusive [activator, partial curve]"
O=C(CN1C(=O)CCSc2ccccc21)Nc1ccc2c(c1)OCO2,–,"inconclusive [activator, partial curve]"
O=S(=O)(c1cccs1)N1CCN(c2ccc(O)cc2)CC1,–,"inconclusive [inhibitor, single point]"
Cc1ccc(NC(=O)CCn2c(=O)c3cccn3c3ccccc32)cc1C,–,"inconclusive [activator, partial curve]"
CN1CCN(C(=O)c2ccc(-c3ccccc3)cc2)CC1,inactive: -4.75%,–
CCOC(=O)c1c(N2CCCCC2)c2ccccc2[nH]c1=O,–,"inconclusive [activator, partial curve]"
CN(C)c1ccc(C(=O)c2ccc(N(C)C)c3ccccc23)cc1,–,"inconclusive [activator, partial curve]"
CCN(C(=O)c1cc2c(=O)n3cccc(C)c3nc2n1CCCOC)C1CCCCC1,–,"inconclusive [activator, single point]"
CCCCc1cc(=O)oc2c(CN(C)C)c(O)ccc12,–,"inconclusive [activator, partial curve]"
O=C(O)c1cccc(S(=O)(=O)Nc2ccc(O)c(Sc3nc4ccccc4s3)c2)c1,–,"inconclusive [activator, partial curve]"
COc1cc(NC(=O)C2CCCN2S(=O)(=O)c2ccc3c(c2)CCC(=O)N3)cc(OC)c1 (stereo not drawn),–,"inconclusive [inhibitor, single point]"
CCOC(=O)c1cc(C)[nH]c(=O)c1C#N,–,"inconclusive [activator, partial curve]"
Nc1ccc(Oc2cc(N)cc(Oc3ccccc3)c2)cc1,–,"inconclusive [inhibitor, partial curve]"
